No constants are given. Whether binding was seen depends on the method and setting. For part of these data: In cells and extracts the contact can be indirect. Some results given as binding are weak or reduced against the parent protein; the word gives no strength. For part of these data: Tags and fused reporters may be left off the sequences shown.

These results are taken from article PMC10164564.

In experiment [1] the target is T1, Flag-tagged USP36 deletion mutant, C-terminal NoLS-containing region (amino acids 801-1121) (human) (UniProt Q9P275).
T1 sequence: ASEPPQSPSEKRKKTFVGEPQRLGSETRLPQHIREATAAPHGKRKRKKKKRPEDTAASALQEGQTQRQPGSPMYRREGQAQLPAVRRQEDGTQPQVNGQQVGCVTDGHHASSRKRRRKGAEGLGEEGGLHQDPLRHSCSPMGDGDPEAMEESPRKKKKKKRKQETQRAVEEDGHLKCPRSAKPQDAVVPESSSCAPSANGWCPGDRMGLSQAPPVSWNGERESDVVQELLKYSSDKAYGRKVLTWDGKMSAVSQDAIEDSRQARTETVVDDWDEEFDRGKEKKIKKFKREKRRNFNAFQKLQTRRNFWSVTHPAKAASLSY
Description: co-IP; anti-Flag immunoprecipitation from lysates of transfected 293, HeLa or H1299 cells (NP-40 lysis buffer), immunoblot. For orientation: A western blot detects proteins with antibodies after separation by electrophoresis.

Experiment [2] addresses T2, Flag-tagged USP36 deletion mutant, N-terminal USP domain-containing region (amino acids 1-420) (human) (UniProt Q9P275).
T2 sequence: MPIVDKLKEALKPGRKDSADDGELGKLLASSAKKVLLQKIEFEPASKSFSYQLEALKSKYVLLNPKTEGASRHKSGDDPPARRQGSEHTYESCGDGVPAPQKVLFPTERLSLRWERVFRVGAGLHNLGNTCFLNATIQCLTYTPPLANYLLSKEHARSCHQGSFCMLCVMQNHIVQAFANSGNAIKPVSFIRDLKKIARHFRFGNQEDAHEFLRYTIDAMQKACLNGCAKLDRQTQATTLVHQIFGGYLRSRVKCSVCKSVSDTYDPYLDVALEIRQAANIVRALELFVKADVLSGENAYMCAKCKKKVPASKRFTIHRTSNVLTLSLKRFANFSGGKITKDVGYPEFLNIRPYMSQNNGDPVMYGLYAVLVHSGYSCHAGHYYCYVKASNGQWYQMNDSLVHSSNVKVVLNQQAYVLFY
The description is as above.

Experiment [3] concerns the target T3, Flag-tagged USP36 deletion mutant, middle region (amino acids 421-800) (human) (UniProt Q9P275).
T3 sequence: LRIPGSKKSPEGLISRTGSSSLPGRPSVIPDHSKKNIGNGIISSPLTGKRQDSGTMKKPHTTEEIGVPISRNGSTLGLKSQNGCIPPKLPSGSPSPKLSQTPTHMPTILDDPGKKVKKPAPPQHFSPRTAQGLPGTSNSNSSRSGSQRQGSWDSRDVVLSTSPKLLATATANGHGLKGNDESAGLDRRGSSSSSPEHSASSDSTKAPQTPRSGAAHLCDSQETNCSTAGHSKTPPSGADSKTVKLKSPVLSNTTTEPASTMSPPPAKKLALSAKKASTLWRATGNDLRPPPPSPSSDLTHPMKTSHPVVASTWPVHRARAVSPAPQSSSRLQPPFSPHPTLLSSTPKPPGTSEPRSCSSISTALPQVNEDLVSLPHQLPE
The description is as above.

Experiment [4] concerns the target T4, Flag-tagged full-length USP36 (wild type) (human) (UniProt Q9P275).
T4 sequence: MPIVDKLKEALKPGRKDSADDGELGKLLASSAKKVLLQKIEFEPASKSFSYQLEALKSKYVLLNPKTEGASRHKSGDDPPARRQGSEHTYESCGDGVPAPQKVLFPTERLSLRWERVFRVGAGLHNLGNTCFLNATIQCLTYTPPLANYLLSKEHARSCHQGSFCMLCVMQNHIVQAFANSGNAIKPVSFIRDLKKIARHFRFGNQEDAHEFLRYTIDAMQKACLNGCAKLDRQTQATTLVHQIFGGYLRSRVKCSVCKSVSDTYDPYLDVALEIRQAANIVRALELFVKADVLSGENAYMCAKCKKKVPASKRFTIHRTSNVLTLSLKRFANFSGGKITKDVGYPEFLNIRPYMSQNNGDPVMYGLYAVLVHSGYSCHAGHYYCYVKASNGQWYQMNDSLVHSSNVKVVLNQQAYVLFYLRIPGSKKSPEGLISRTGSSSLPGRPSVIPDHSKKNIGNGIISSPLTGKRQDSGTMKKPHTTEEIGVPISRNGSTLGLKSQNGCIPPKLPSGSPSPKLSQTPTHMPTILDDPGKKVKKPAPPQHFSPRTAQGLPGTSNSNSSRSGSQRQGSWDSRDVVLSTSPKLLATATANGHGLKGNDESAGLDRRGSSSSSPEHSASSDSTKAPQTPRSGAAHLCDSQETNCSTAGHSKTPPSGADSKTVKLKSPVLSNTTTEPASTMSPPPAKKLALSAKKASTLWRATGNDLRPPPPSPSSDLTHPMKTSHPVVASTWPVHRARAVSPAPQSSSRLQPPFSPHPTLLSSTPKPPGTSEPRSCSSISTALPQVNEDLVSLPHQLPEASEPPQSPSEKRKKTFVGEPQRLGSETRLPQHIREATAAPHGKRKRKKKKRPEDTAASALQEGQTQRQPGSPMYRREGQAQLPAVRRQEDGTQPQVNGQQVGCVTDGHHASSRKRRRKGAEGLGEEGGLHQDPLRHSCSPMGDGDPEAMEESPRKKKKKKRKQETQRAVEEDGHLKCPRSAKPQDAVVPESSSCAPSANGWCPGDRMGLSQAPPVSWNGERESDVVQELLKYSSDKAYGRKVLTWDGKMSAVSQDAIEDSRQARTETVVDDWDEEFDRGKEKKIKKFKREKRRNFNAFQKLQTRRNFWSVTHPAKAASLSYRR
The experiment is described as above.

Experiment [5] concerns the target T4, Flag-tagged full-length USP36 (wild type) (human). The experiment can be described thus: SEC; nuclear extracts of 293 cells expressing Flag-USP36 on Superose 6 10/300 GL in PBS pH 7.2; fractions analysed by immunoblot. Background: Size exclusion chromatography separates by hydrodynamic size, large species first.
The target of experiment [6] is T5, endogenous USP36 (human (endogenous in H1299, 293, HeLa)) (UniProt Q9P275).
T5 sequence: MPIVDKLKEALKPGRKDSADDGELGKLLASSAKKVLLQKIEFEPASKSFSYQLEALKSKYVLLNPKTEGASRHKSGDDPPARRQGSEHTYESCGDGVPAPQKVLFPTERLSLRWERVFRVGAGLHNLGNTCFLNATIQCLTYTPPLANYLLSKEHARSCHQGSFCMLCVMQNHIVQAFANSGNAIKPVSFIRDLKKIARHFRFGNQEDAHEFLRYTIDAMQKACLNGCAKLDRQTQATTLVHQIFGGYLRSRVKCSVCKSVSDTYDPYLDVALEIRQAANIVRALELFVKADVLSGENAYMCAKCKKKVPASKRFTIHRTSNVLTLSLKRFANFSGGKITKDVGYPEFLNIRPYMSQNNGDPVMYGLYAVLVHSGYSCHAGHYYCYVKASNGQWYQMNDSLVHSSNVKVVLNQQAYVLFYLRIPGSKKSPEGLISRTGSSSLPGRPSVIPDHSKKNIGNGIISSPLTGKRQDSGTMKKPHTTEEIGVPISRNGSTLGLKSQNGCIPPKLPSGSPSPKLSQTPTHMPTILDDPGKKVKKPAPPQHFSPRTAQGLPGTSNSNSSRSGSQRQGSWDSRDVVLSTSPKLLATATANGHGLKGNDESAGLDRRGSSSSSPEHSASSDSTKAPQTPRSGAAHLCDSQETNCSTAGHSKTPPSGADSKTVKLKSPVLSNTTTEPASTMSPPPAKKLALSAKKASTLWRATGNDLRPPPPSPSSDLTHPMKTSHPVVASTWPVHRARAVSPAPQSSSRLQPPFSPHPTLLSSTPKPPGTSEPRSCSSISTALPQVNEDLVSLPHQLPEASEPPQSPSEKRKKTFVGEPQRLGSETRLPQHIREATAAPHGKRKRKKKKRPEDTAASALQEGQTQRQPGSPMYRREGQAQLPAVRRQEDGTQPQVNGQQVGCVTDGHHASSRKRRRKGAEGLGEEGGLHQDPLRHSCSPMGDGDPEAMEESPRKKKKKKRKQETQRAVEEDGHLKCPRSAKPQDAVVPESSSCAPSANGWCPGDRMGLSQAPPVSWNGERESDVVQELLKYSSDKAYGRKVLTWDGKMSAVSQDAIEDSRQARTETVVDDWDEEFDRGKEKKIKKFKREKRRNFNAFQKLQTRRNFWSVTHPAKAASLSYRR
Description: co-IP; endogenous proteins; 293 (and HeLa) lysates immunoprecipitated with anti-USP36 antibody (Proteintech), immunoblot with anti-EXOSC10.

In experiment [7] the target is T4, Flag-tagged full-length USP36 (wild type) (human). Description: co-IP; lysates of the isolated nucleolar fraction of HeLa cells expressing Flag-USP36; anti-Flag immunoprecipitation, immunoblot with anti-EXOSC10.
Experiment [8] has as its target T1, Flag-tagged USP36 deletion mutant, C-terminal NoLS-containing region (amino acids 801-1121) (human). Description: co-IP; anti-Flag immunoprecipitation in the presence of 100 μg/ml RNase A and 100 U/ml RNase T1; 293 and HeLa cells transfected with Flag-USP36; cells of Supplementary Figures S2C, D not told.
The target in experiment [9] is T4, Flag-tagged full-length USP36 (wild type) (human). The experiment is described as above.

B1: endogenous EXOSC10 (enzyme, UniProt Q01780 1-885)
chain: MAPPSTREPRVLSATSATKSDGEMVLPGFPDADSFVKFALGSVVAVTKASGGLPQFGDEYDFYRSFPGFQAFCETQGDRLLQCMSRVMQYHGCRSNIKDRSKVTELEDKFDLLVDANDVILERVGILLDEASGVNKNQQPVLPAGLQVPKTVVSSWNRKAAEYGKKAKSETFRLLHAKNIIRPQLKFREKIDNSNTPFLPKIFIKPNAQKPLPQALSKERRERPQDRPEDLDVPPALADFIHQQRTQQVEQDMFAHPYQYELNHFTPADAVLQKPQPQLYRPIEETPCHFISSLDELVELNEKLLNCQEFAVDLEHHSYRSFLGLTCLMQISTRTEDFIIDTLELRSDMYILNESLTDPAIVKVFHGADSDIEWLQKDFGLYVVNMFDTHQAARLLNLGRHSLDHLLKLYCNVDSNKQYQLADWRIRPLPEEMLSYARDDTHYLLYIYDKMRLEMWERGNGQPVQLQVVWQRSRDICLKKFIKPIFTDESYLELYRKQKKHLNTQQLTAFQLLFAWRDKTARREDESYGYVLPNHMMLKIAEELPKEPQGIIACCNPVPPLVRQQINEMHLLIQQAREMPLLKSEVAAGVKKSGPLPSAERLENVLFGPHDCSHAPPDGYPIIPTSGSVPVQKQASLFPDEKEDNLLGTTCLIATAVITLFNEPSAEDSKKGPLTVAQKKAQNIMESFENPFRMFLPSLGHRAPVSQAAKFDPSTKIYEISNRWKLAQVQVQKDSKEAVKKKAAEQTAAREQAKEACKAAAEQAISVRQQVVLENAAKKRERATSDPRTTEQKQEKKRLKISKKPKDPEPPEKEFTPYDYSQSDFKAFAGNSKSKVSSQFDPNKQTPSGKKCIAAKKIKQSVGNKSMSFPTGKSDRGFRYNWPQR
As for B1, the binding entry in experiment [1] was “binds”; in experiment [2] it was “no binding”; in experiment [3], “no binding”; in experiment [4] it was “binds”; in experiment [5] it was “binds”; in experiment [6], “binds”. The binding entry in [7], in [8] and in [9] was “binds” each time.
